Our source for the thermal melting temperature values is the supplement of paper PMC7726561.

Whole data set: some 1,100 sequences, median “thermal melting temperature (Tm) of peptide-HLA complex” near 58, cut for the lowest 2% near 42. The list shows a part of the results.

The labels stand for the following.
B1: unnamed (peptide)
chain: FIDDANYSV
B2: unnamed (peptide)
chain: FLASESLIKQI
B3: unnamed (peptide)
chain: LLFDQNDKV
B4: unnamed (peptide)
chain: KTLEGEFSV
B5: unnamed (peptide)
chain: SLFGNIKGA
B6: unnamed (peptide)
chain: FLLEKGYEV
B7: unnamed (peptide)
chain: HLSIINEYL
B8: unnamed (peptide)
chain: KLFDAPLSI
B9: unnamed (peptide)
chain: SLNEYQPKL
B10: unnamed (peptide)
chain: SLQEEKLIYV
B11: unnamed (peptide)
chain: VLQDKDLFSV
B12: unnamed (peptide)
chain: ALDDSRFQI
B13: unnamed (peptide)
chain: FLIPIYHQV
B14: unnamed (peptide)
chain: MLANDIARL
B15: unnamed (peptide)
chain: ILNEFPGHGL
B16: unnamed (peptide)
chain: SLLGGDVVSV
B17: unnamed (peptide)
chain: KLMNVDPDSV
B18: unnamed (peptide)
chain: SLDQPTQTV
B19: unnamed (peptide)
chain: ALTDFVRSV
B20: unnamed (peptide)
chain: SLLENIAKA
B21: unnamed (peptide)
chain: SLSDTVEKL
B22: unnamed (peptide)
chain: TLADVLYHV
B23: unnamed (peptide)
chain: TLLAAEFLKQV
B24: unnamed (peptide)
chain: QLLPSIPQL
B25: unnamed (peptide)
chain: SLFSEETPVVL
B26: unnamed (peptide)
chain: GLLKDIREL
B27: unnamed (peptide)
chain: TLAGDVHIV
B28: unnamed (peptide)
chain: TIPEAFRGV
B29: unnamed (peptide)
chain: LLGPRLVLA
B30: unnamed (peptide)
chain: ALYPGQLVQL
B31: unnamed (peptide)
chain: NLMEQPIKV
B32: unnamed (peptide)
chain: KLSDLQTQL
B33: unnamed (peptide)
chain: KMLSGVGGFVL
B34: unnamed (peptide)
chain: YMIGSEVGNYL
B35: unnamed (peptide)
chain: RLYQGINQL
B36: unnamed (peptide)
chain: KIFTEDLPEV
B37: unnamed (peptide)
chain: ALDEVFTKV
B38: unnamed (peptide)
chain: FLANIGTSV
B39: unnamed (peptide)
chain: VLGPKIEAV
B40: unnamed (peptide)
chain: RLLPPGAVVAV
B41: unnamed (peptide)
chain: ALLDGRLQV
B42: unnamed (peptide)
chain: YLPYPIHQV
B43: unnamed (peptide)
chain: KIVDFSYSV
B44: unnamed (peptide)
chain: FQHTGIYSV
B45: unnamed (peptide)
chain: KLFDTQQFL
B46: unnamed (peptide)
chain: VLQEKVPEI
B47: unnamed (peptide)
chain: NLDFNPPHV
B48: unnamed (peptide)
chain: SLNGLEVHL
B49: unnamed (peptide)
chain: IQDDMQTLYV
B50: unnamed (peptide)
chain: TLAEIAKVEL
B51: unnamed (peptide)
chain: FLPPEHTIVYI
B52: unnamed (peptide)
chain: RLAQEGIYTL
B53: unnamed (peptide)
chain: RLLEVPVML
B54: unnamed (peptide)
chain: HLTDITLKV
B55: unnamed (peptide)
chain: FLFQEPRSI
B56: unnamed (peptide)
chain: TLFPKDVQL
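Further: cell lysates heated 10 min at 37–73 °C, remaining pHLA pulled down with pan-class I antibody, peptides quantified by DIA-MS versus 37 °C, Tm where half the complex is lost.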

For the test, the target named is HLA-A*02:01. The test is described as follows: thermal melting temperature (Tm) of peptide-HLA complex; higher = more thermostable pHLA complex. The settings on record: C1R-A*02:01.
Sequence B1 returned a thermal melting temperature of 60.2 °C. As for B2, the figure is 63.2 °C; as for B3, 58.6 °C. B4: the thermal melting temperature came to 57.7 °C. As to B5, the thermal melting temperature is 57.2 °C. Sequence B6 gave a thermal melting temperature of 63.2 °C. In the case of B7, the thermal melting temperature is 62.4 °C.

Turning to B8, the thermal melting temperature was found to be 61.6 °C. In the case of B9, the thermal melting temperature came to 59.4 °C. As for B10, the thermal melting temperature was found to be 59.5 °C.

The sequence B11 returned a thermal melting temperature of 60.1 °C. Sequence B12 had a thermal melting temperature of 57.2 °C. Consider B13, for which the thermal melting temperature came out at 62.7 °C. As to B14, the thermal melting temperature came to 56 °C. To B15 belongs 57.5 °C. For the sequence B16, the thermal melting temperature is 62.7 °C. B17 yielded a thermal melting temperature of 53.8 °C. In the case of B18, the thermal melting temperature came out at 51.9 °C. For the sequence B19, the thermal melting temperature came out at 57 °C.

Consider B20, for which the thermal melting temperature came to 60.6 °C. With B21, the thermal melting temperature worked out at 55.2 °C. Take B22: the thermal melting temperature is 63.5 °C. Take B23: the thermal melting temperature stood at 62.3 °C. Sequence B24 registered a thermal melting temperature of 53.7 °C.

In turn, B25 had a thermal melting temperature of 49.1 °C. To B26 belongs 54 °C. B27: the thermal melting temperature was determined as 55.9 °C. Consider B28, for which the thermal melting temperature was 46.3 °C. To B29 belongs 49 °C; to B30, 58.4 °C; to B31, 55.4 °C. B32: the thermal melting temperature amounted to 54.1 °C. As for B33, the figure is 50.3 °C; as for B34, 48 °C.

As for B35, the thermal melting temperature was 55.9 °C. Consider B36, for which the thermal melting temperature worked out at 61.5 °C.

B37: the thermal melting temperature came to 56.5 °C. Turning to B38, the thermal melting temperature is 62.2 °C. In turn, B39 registered a thermal melting temperature of 55.5 °C. Regarding B40, the thermal melting temperature was found to be 62.9 °C. B41 came in with a thermal melting temperature of 60.7 °C. Turning to B42, the thermal melting temperature was 57.7 °C.

B43 gave a thermal melting temperature of 61.7 °C.

For the sequence B44, the thermal melting temperature worked out at 56.6 °C. Consider B45, for which the thermal melting temperature turned out to be 60.1 °C. Sequence B46 returned a thermal melting temperature of 58.4 °C.

The sequence B47 returned a thermal melting temperature of 50.1 °C. B48 had a thermal melting temperature of 56.6 °C.

B49: the thermal melting temperature came out at 43.4 °C. B50: the thermal melting temperature was determined as 57.9 °C. Regarding B51, the thermal melting temperature stood at 56 °C.

B52 came in with a thermal melting temperature of 53.4 °C. B53 came in with a thermal melting temperature of 58.8 °C.

In turn, B54 registered a thermal melting temperature of 57.8 °C.

For B55, the thermal melting temperature was determined as 61.2 °C. The sequence B56 displayed a thermal melting temperature of 57.1 °C.
